Each structure is given as a SMILES string. About 800 (1.6%) of roughly 50,000 compounds showed an effect of 50% or more. This is one part of the list.

Among the data in PubChem BioAssay AID1240 (Sanford-Burnham Center for Chemical Genomics, 2008) are displacement values, retold here.

The target of the assay is Bcl-2-like protein 10 (Homo sapiens) (UniProt Q9HD36). As to the kind of experiment: Phenotype converters, Bcl-B/TR3 peptide binding displacement, primary biochemical FP (AID 1240).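 Further: 0% = Bcl-B with tracer peptide and DMSO and 100% = tracer peptide lacking Bcl-B.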 The settings on record: GST-Bcl-B / FITC-TR3 peptide fluorescence polarization; stronger effect = higher value; compound at 3.75 mg/L. (In general: Fluorescence polarisation rises when a labelled molecule tumbles more slowly, as on binding a larger partner.)
Chain of UniProt Q9HD36 (Q9HD36 whole entry, looked up): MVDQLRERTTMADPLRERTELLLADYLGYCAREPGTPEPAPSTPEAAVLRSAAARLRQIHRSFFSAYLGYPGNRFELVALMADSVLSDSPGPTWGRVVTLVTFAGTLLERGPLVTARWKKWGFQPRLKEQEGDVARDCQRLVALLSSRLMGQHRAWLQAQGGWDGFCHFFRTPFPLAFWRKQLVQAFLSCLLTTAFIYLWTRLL
With `COC(=O)C(CC(C)C)NC(=O)COC(=O)/C=C/c1ccc([N+](=O)[O-])cc1` (stereo not given), the displacement is -12%.
With `C/C(=N\NC(=O)COc1ccc(Cl)cc1[N+](=O)[O-])c1cccs1` the figure was 2.4%.
On to `CCCCOc1cc2oc(=O)cc(C)c2cc1CC`, for which the displacement worked out at 7.3%.
Turning to `COC(=O)c1cc(C(=O)Nc2ccccn2)cc([N+](=O)[O-])c1`, the displacement was -1.3%.
As to `O=C(Cc1ccccc1)Nc1ccc(/C=C/C(=O)c2ccccc2)cc1`, the displacement was -9.3%.
Regarding `Cc1ccc(N2C(=O)CC(Sc3nc(C)cc(C)n3)C2=O)cc1` (stereo not given), the displacement was found to be 0.8%.
With `CC(=O)c1ccc(Oc2ccc([N+](=O)[O-])cc2)cc1` the figure was 4.8%; with `COc1ccc2c(c1OC)C(=O)OC2CC(=O)c1ccc(N(C)C)cc1` (stereo not given), 2.9%.
With `Fc1ccc(Nc2nc(-c3ccc(F)cc3)cs2)cc1` the figure was -5.3%.
With `CC(=O)CC(=O)Nc1cccc(Br)c1` the figure was -1%; with `C=CCn1c(C)c(/C=C(/C#N)C(=O)Nc2ccc(OC)cc2)c2ccccc21`, -6.6%.
Regarding `Cc1n[nH]c(C)c1CCC(=O)N/N=C\c1ccc(Cl)c(Cl)c1`, the displacement is -1.7%.
Take `Cc1ccc(S(N)(=O)=O)cc1NC(=O)c1ccc([N+](=O)[O-])cc1Cl`: the displacement was 11%.
As to `COCCOC(=O)c1c(C)oc2ccc(NS(=O)(=O)c3cc(C)ccc3C)cc12`, the displacement came out at 10.8%.
The result for `O=C(CN(CCc1ccccc1)S(=O)(=O)c1ccc(Cl)cc1)NC1CCCC1` reads -20.6%; that for `O=C(NCC1CC2CC1C1CC21)c1ccc(F)cc1` (stereo not given), -1.8%; that for `Cc1cccc(NS(=O)(=O)c2cccc3cccnc23)c1`, -10.6%.
With `COc1ccc(NC(=O)/C(C#N)=C/c2ccccc2[N+](=O)[O-])cc1`, the displacement is 9.6%.
Turning to `CCOc1ccc(C(=O)Nc2ccc(C(=O)OC)cc2)cc1Cl`, the displacement was -5.2%.
Take `COc1ccc([N+](=O)[O-])cc1NCc1ccc(C(F)(F)F)cc1`: the displacement stood at 1%.
The result for `c1cc(CSc2nc3ccccc3[nH]2)nc(CSc2nc3ccccc3[nH]2)c1` reads -10.3%.
For the molecule `O=C1/C(=C/c2ccc(Br)c([N+](=O)[O-])c2)SC(=S)N1Cc1ccccc1`, the displacement stood at 11.6%.
As to `O=C(Nc1ccc2nn(-c3ccc(F)cc3)nc2c1)c1ccccc1I`, the displacement is -28.4%.
With `Cn1c(=O)c(C(=O)Nc2ncccn2)c(O)c2ccccc21` the figure was 6.7%; with `O=C1/C(=C\c2ccc3c(c2)OCO3)C(c2ccccc2)=NN1c1ccccc1`, 8.9%; with `O=C(Nc1ccccc1)Nc1nnc(-c2ccc(Cl)cc2Cl)s1`, 5.3%.
Consider `CCOc1ccc(NC(=O)CC2S/C(=N\N=C\c3ccc(O)c(OC)c3)NC2=O)cc1` (stereo not given), for which the displacement stood at 9.6%.
As to `COC(=O)C1=C(C)NC(=O)NC1c1ccc(C(C)C)cc1` (stereo not given), the displacement was determined as 7.2%.
Consider `Cc1ccc(C)c(NC(=O)C2CC3CCC2C3)c1` (stereo not given), for which the displacement is 4%.
In the case of `O=C(COc1ccc2ccccc2c1)N1CCN(C(=O)c2cccnc2)CC1`, the displacement worked out at 0.8%.
As to `Cc1c(CCNC(=O)NS(=O)(=O)c2ccccc2Cl)c2ccccc2n1Cc1ccccc1`, the displacement came out at 12.4%.
For the molecule `Cc1ccc(OCCOc2ccc(Cl)cc2/C=c2\sc3nc4ccccc4n3c2=O)cc1`, the displacement is -26.8%.
For `COc1ccccc1CNC(=O)CN(c1ccc(C)cc1)S(=O)(=O)c1ccc(F)cc1`, the displacement turned out to be 0.1%.
`O=C(O)CN1C(=O)/C(=C\c2ccc(Cl)c(Cl)c2)SC1=S`: the displacement is 10.4%.
Regarding `COc1ccc(N(CC(=O)Nc2ccc(OC)c(OC)c2)S(C)(=O)=O)cc1Cl`, the displacement was -3.1%.
Regarding `COC(=O)c1c(C)oc2ccc(OC(=O)c3cccc([N+](=O)[O-])c3)cc12`, the displacement was determined as 5.4%.
The result for `COc1ccc(OC)c(S(=O)(=O)n2nc(C)cc2C)c1` reads -21%; that for `CCN(CC)C(=O)c1ccc(C(=O)c2ccccc2)cc1`, -8.4%.
As for `FC(F)(F)c1ccc(C2Nc3cccc4cccc(c34)N2)cc1`, the displacement stood at 16.4%.
Turning to `O=C(COc1ccc(Cl)cc1)Nc1ccc2ccccc2c1`, the displacement worked out at 15.9%.
Turning to `C/C(Cn1nnc([N+](=O)[O-])n1)=N/NC(=O)Cc1ccc(Cl)cc1`, the displacement worked out at 1.8%.
The result for `Cc1ccc(Br)cc1S(=O)(=O)N1CCN(c2ccccc2)CC1` reads -4.7%; that for `C=CCn1c(NCc2ccc(N(CC)CC)cc2)nc2ccccc21`, 2.3%.
As to `O=C(O)c1cccc2c1NC(c1ccccc1Br)C1CC=CC21` (stereo not given), the displacement was determined as 132%.
As to `C/C(=N\NC(=O)CSc1ncccn1)c1ccc(Cl)cc1`, the displacement was -5%.
In the case of `CN1CCN(C(=O)CCN2C(=O)S/C(=C/c3ccc(Cl)cc3)C2=O)CC1`, the displacement came to 4.7%.
Turning to `CC1=C(C(=O)OC(C)C)C(c2ccccc2C(F)(F)F)CC(=O)N1` (stereo not given), the displacement was -4.4%.
Take `CCOC(=O)c1c(CN(C)C)n(C)c2cc(Br)c(O)cc12`: the displacement is -7.4%.
Turning to `CCOC(=O)C1=C(O)/C(=C/c2ccc(N(C)C)cc2)SC1=Nc1ccc([N+](=O)[O-])cc1`, the displacement turned out to be 15.5%.
With `O=C(COc1ccccc1[N+](=O)[O-])Nc1ccc(-c2nc3ccccc3o2)cc1`, the displacement was -1.3%.
For the molecule `N#C/C(=N/Nc1ccc(Cl)cc1)C(=N)N1CCCCCC1`, the displacement is -1.7%.
Regarding `Cc1ccc(N=C2NC(=O)/C(=C/c3ccc(O)cc3)S2)cc1C`, the displacement came to 9.2%.
`O=C1/C(=C/c2ccc(I)o2)SC(=S)N1c1ccccc1`: the displacement was determined as 22.4%.
Take `O=C(Nc1ccccc1C(=O)Nc1ccccn1)c1ccc([N+](=O)[O-])cc1`: the displacement turned out to be 45.1%.
On to `COc1ccc(CN2CCN(C(=O)c3cccc(F)c3)CC2)c(OC)c1OC`, for which the displacement is -4.8%.
As for `COc1cc2c(cc1OC)C1=CC(=O)C(=O)N1C(C)(C)C2`, the displacement was 18.4%.
For `Cc1cc(C)nc(SCC(=O)N(c2ccccc2)c2ccccc2)n1`, the displacement was -6.6%.
As for `COc1cc(/C=N\n2nnnc2N)ccc1OCc1ccc(C)cc1`, the displacement was 11.5%.
On to `COc1ccc(N2C(=O)CC(Sc3nc(C)c4ccccc4n3)C2=O)cc1` (stereo not given), for which the displacement amounted to 12.9%.
Consider `COc1c(Br)cc(Br)cc1/C=N\NC(=O)COc1ccc(C)cc1`, for which the displacement was 1.1%.
Take `COc1ccc(OCCNC(=O)Nc2cc(F)c(F)cc2Cl)cc1`: the displacement came out at 1%.
Turning to `COC(=O)C1=C(C)N(CC(C)C)C(=O)/C1=C\c1cccs1`, the displacement was determined as 21.7%.
In the case of `CCOC(=O)c1ccc(-c2ccc(/C=C3\C(=O)NC(=O)C(C#N)=C3C)o2)cc1`, the displacement was -4.6%.
On to `Cc1cc(OCCOCCN2CCC(C)CC2)ccc1Cl`, for which the displacement turned out to be 2.1%.
Turning to `Cc1ccc(OCCNC(=O)c2ccccc2F)cc1`, the displacement turned out to be 0.6%.
With `Cc1cccc(N2C(=O)NC(=O)/C(=C/c3cc(Cl)c(O)c(Cl)c3)C2=O)c1`, the displacement stood at 4%.
The result for `O=C(Nc1ccc(I)cc1)C1CC(=O)N(c2ccc(F)cc2)C1` (stereo not given) reads 7.1%; that for `Cc1ccc(C2CC(C(F)(F)F)n3ncc(C(N)=O)c3N2)cc1` (stereo not given), -4.4%.
For the molecule `COc1ccccc1C/C(N)=N/OC(=O)c1ccccc1OC`, the displacement stood at 12.4%.
The result for `O=c1c2ccccc2nc(Cc2ccccc2)n1-c1cccc2ccccc12` reads -1.4%.
Take `Cc1cc(C=C2C(=O)N(C)C(=O)N(C)C2=O)c(C)n1-c1ccc([N+](=O)[O-])cc1`: the displacement is -45.5%.
The result for `O=C(O)CCCc1sc(/C(=N\O)C(=O)O)cc1[N+](=O)[O-]` reads -17.1%.
For `Cc1ccn2cc(-c3cccc(NC(=O)c4cc5cc(Br)ccc5oc4=O)c3)nc2c1`, the displacement was determined as 14.3%.
For the molecule `CCOc1cc(OCC)cc(C(=O)Nc2ccc3oc(-c4ccccc4F)nc3c2)c1`, the displacement stood at 10.2%.
On to `CC1=C(C(=O)Nc2ccc(C)cc2)C(c2ccc(O)cc2)NC(=S)N1` (stereo not given), for which the displacement was determined as 5.1%.
With `NC(=O)c1[nH]cnc1C(=O)c1ccccc1`, the displacement came to 15%.
`O=C(Nc1ccc(S(=O)(=O)N2CCCCCC2)cc1)c1ccco1`: the displacement turned out to be 0.9%.
The result for `CC1=C(C(=O)Nc2ccccc2Cl)C(c2ccccc2F)NC(=O)N1` (stereo not given) reads -13.4%; that for `O=C(COc1ccc(Cl)cc1Cl)NCc1ccncc1`, -2.7%.
For the molecule `c1ccc(-c2nc(N3CCOCC3)nc3ccccc23)cc1`, the displacement is -1.9%.
With `Cc1cc(C)c(C#N)c(SCC(=O)N2CCOCC2)n1` the figure was 7.3%.
Take `Cc1ccc2[nH]c3c(c2c1)CCCC3NC(N)=O` (stereo not given): the displacement was 13.4%.
As to `Cc1sc2ncnc(Nc3ccncc3)c2c1C`, the displacement was -13.3%.
For `Nc1nnc(CCC(=O)c2ccccc2)s1`, the displacement amounted to 3.5%.
In the case of `O=C(NCc1ccccc1)c1ccccc1[N+](=O)[O-]`, the displacement is 9.7%.
Turning to `C/C=N/N=C1/NC(=O)C(CC(=O)Nc2ccc(Cl)c(Cl)c2)S1` (stereo not given), the displacement was -3.9%.
The result for `CC(C)(C)N1C(=O)NC(=O)C(=Cc2ccc(Br)s2)C1=O` reads 11.2%; that for `COC(=O)C1=C(C)NC2=C(C(=O)c3ccccc32)C1c1ccc(-c2ccc(Cl)cc2)o1` (stereo not given), 9.2%; that for `Cc1ccc(-c2cc(C(=O)NC(C)C)c3ccccc3n2)s1`, -7.7%.
For the molecule `COc1cc(C(=O)Nc2ccc([N+](=O)[O-])cc2Cl)cc(OC)c1OC`, the displacement was 2.3%.
With `CCOc1ccc(/C=N\NC(=O)c2cncc(Br)c2)cc1` the figure was 26.6%.
On to `CCOC(=O)C(C(=O)OCC)=C1Sc2ccccc2N1C`, for which the displacement is 13.4%.
With `O=C(/C=C/c1ccccc1)N1CCN(CCN2C(=O)C3C4C=CC(C4)C3C2=O)CC1` (stereo not given), the displacement was -3.2%.
`CC(=O)NS(=O)(=O)c1ccc(NC(=O)Nc2ccc(Cl)cc2)cc1`: the displacement was -8.7%.
For `C=CCNC(=O)COc1ccc(C)cc1Br`, the displacement is -1.7%.
Regarding `CCOc1ccccc1NC(=O)COc1ccccc1`, the displacement was found to be 11.5%.
`COc1cc(/C=N/NC(=O)CCC2C(=O)NN=C2C)ccc1O` (stereo not given): the displacement is -11.5%.
Take `CCOc1cc(C(=O)Nc2ncccc2Cl)cc(OCC)c1OCC`: the displacement is -0.9%.
Turning to `C=C(C)Cn1c(-c2ccccc2Br)n[nH]c1=S`, the displacement was -2.4%.
As for `CCOC(=O)c1ccccc1NC(=O)CN(c1ccc(OC)cc1)S(=O)(=O)c1ccccc1`, the displacement was determined as 1.1%.
On to `COc1ccc(N(CC(=O)Nc2ccc(Br)cc2)S(C)(=O)=O)c(OC)c1`, for which the displacement turned out to be 1.2%.
For the molecule `CC1(C)CC(CCNCc2ccccc2)(Cc2ccccc2)CCO1` (stereo not given), the displacement was determined as 8.4%.
For `O=C(Nc1ccc(-c2nc3ncccc3o2)cc1)c1cc2ccccc2oc1=O`, the displacement was -1%.
Regarding `CCOC(=O)C(CCCOc1cc(C)ccc1C)C(=O)OCC`, the displacement is -8%.
Consider `COc1cccc(OC)c1C(=O)Nc1cccc(C(=O)c2ccccc2)c1`, for which the displacement is 10.9%.
Regarding `CCOC(=O)c1sc(NC(=O)CCC2CCCC2)c(C(N)=O)c1C`, the displacement was -3%.
With `C=CCN1C(=O)/C(=C\c2ccc(-c3ccc(OC)cc3[N+](=O)[O-])o2)C(=O)NC1=S` the figure was 18.3%.
For `Cc1ccc(C(C)C)c(OCC(=O)Nc2ncc(S(=O)(=O)c3ccc([N+](=O)[O-])cc3)s2)c1`, the displacement is -1%.
The result for `COc1ccccc1OCCCCN1CCCC1` reads 16.9%; that for `O=S(=O)(c1ccc(F)cc1)n1nnc2ccccc21`, 2.3%.
